Data: ChEMBL document CHEMBL1201862, “PubChem BioAssay data set” (2004)
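Grown in 96-well plates, cells were treated for 48 hours with each compound at five concentrations. Insufficient inhibition: endpoint recorded as highest concentration tested. At the GI50, growth is halved.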 Activity calls are given as the source filed them. Cut-off read from the data, not from the text of the source: active = GI50 up to about 1.1 µM and inactive = higher.

Each molecule was assayed on NCI-H322M (assay: inhibition of tumour cell growth, NCI panel, 48 h).
With `c1ccc(-n2cnnc2-c2nsc3ccccc23)cc1` the GI50 was inactive: > 100 µM.
`c1ccc2c(c1)Nc1cccc3c1c-2nc1cc2ccccc2cc13` was tested, and the GI50 was inactive: 1.66 µM.
`N#Cc1ccc(C2NN=CC23C(=O)c2ccccc2OC3c2ccccc2)cc1` (centres undefined) was tested, and the GI50 was inactive: 73.8 µM.
For `O=C(c1ccccc1)[C@H]1Nc2ccc(Cl)cc2[C@H]2c3ccccc3O[C@H]21`, the GI50 was inactive: 14.8 µM.
For `Cc1ccc(NC(=O)/C(=N/N(C)C)C(C2OC(=O)c3ccccc32)[N+](=O)[O-])cc1` (centres undefined), the GI50 was inactive: > 100 µM.
For `CCC1CCc2c(OC)ccc(OCC(=O)O)c2C1=O` (centres undefined), the GI50 was inactive: > 100 µM.
In the case of `COc1cc2c3c(cc(Cl)nc3c1OC)C(=O)C(=O)N2`, the GI50 is reported as inactive: 17.7 µM.
For `O=C(O/N=C1/CCCC/C1=C\c1ccccc1)c1ccccc1`, the GI50 was inactive: > 100 µM.
In the case of `Cc1cn(CC2=NCC(C)(C)N2)c(=O)[nH]c1=O`, the GI50 is reported as inactive: > 100 µM.
`Cc1ccc(C(=O)N/N=C(\N=N\c2cccc(Cl)c2)c2ccc(N(CCC#N)CCC#N)cc2C)cc1` was tested, and the GI50 was inactive: > 100 µM.
In the case of `C[N+](C)(CCNc1ccc(NCC[N+](C)(C)Cc2ccc([N+](=O)[O-])cc2)c2c1C(=O)c1c(O)ccc(O)c1C2=O)Cc1ccc([N+](=O)[O-])cc1`, the GI50 is reported as inactive: > 50 µM.
With `C[C@H](CCC1=NCCN1)[C@H]1CC[C@H]2[C@@H]3CC[C@@H]4C[C@H](O)CC[C@]4(C)[C@H]3CC[C@]12C` the GI50 was inactive: 9.42 µM.
`CC[C@@H]1CC[C@@H]2[C@H](CC[C@]3(C)[C@@H](O[N+](=O)[O-])CC[C@@H]23)[C@H]1C(C)=O` was tested, and the GI50 was inactive: 88.3 µM.
In the case of `Cc1ccc2nc3ccccc3c(C3C4C(=O)N(c5ccc(Br)cc5Cl)C(=O)C4ON3C(C(N)=O)c3ccccc3)c2c1` (centres undefined), the GI50 is reported as inactive: > 25 µM.
In the case of `COc1ccc(C(=O)C(C(=O)CCC(=O)Nc2ccc(Cl)c(Cl)c2)c2ccc(OC)cc2)cc1` (centres undefined), the GI50 is reported as inactive: > 100 µM.
With `OCC1NC(CO)C(O)C1O` (centres undefined) the GI50 was inactive: > 100 µM.
`O=[N+]([O-])/C=C/c1cn(CCCCCCCCn2cc(/C=C/[N+](=O)[O-])c3ccccc32)c2ccccc12` was tested, and the GI50 was inactive: > 10 µM.
With `CC(=O)CC1=C(OC(C)C)C2(OCCO2)C1O` (centres undefined) the GI50 was inactive: > 100 µM.
With `N#Cc1c(-c2ccccc2)c(/N=N/c2ccc(F)cc2)c(=O)n2c1[nH]c1ccccc12` the GI50 was inactive: 2.05 µM.
In the case of `COc1cc2c(cc1OC)C(Cc1cc(Br)c(OC)c(OC)c1)=[N+](C)CC2`, the GI50 is reported as inactive: > 100 µM.
`O=C(/C=C1/Nc2ccc([N+](=O)[O-])cc2N/C1=C/C(=O)c1ccc(Cl)cc1)c1ccccc1` was tested, and the GI50 was inactive: > 100 µM.
`C=CCN(C(=O)CNC(=O)C(F)(F)F)c1cc(OCc2ccccc2)c2c(c1)c(C)cn2S(=O)(=O)c1ccccc1` was tested, and the GI50 was inactive: > 100 µM.
`Cc1cc2c(cc1Br)C1(C)CCC(C)C1(C)O2` (centres undefined) was tested, and the GI50 was inactive: 60.1 µM.
For `C[C@H]1S[C@H](c2c(F)cccc2F)n2c1nc1ccccc12`, the GI50 was inactive: > 100 µM.
In the case of `COc1nc(C#CCCCC#N)nc(OC)n1`, the GI50 is reported as inactive: 19.1 µM.
For `CN(C)C(=O)Nc1c([N+](=O)[O-])cc(C(F)(F)F)cc1[N+](=O)[O-]`, the GI50 was inactive: 96.8 µM.
In the case of `O=C1c2ccc3c4ccc5c6c(ccc(c7ccc(c2c37)C(=O)N1CCN1CCCCC1)c64)C(=O)N(CCN1CCCCC1)C5=O`, the GI50 is reported as inactive: > 100 µM.
For `CC(C)=CCC/C(C)=C/Cc1c2c(c3oc(-c4ccc(O)c(O)c4)c(O)c(=O)c3c1O)C=CC(C)(C)O2`, the GI50 was inactive: 1.52 µM.
`Cc1cc(Cl)cc2c1NC(=O)C2(O)C(C)C(=O)c1ccc(Cl)cc1` (centres undefined) was tested, and the GI50 was inactive: > 80.2 µM.
In the case of `CCn1nc(C)c2c1C(=O)NCC(=O)N2`, the GI50 is reported as inactive: > 100 µM.
With `CC(=O)C1(c2ccccc2)CCCN(C)CC1` (centres undefined) the GI50 was inactive: > 100 µM.
For `Cc1ccc(Cc2nn(C)c(=O)n2-n2cccc2)cc1`, the GI50 was inactive: > 100 µM.
With `O=C(NCCC1CN(C(=O)OCc2ccccc2)c2ccccc21)OCc1ccccc1` (centres undefined) the GI50 was inactive: > 100 µM.
In the case of `CCOC(=O)C(C)(NC(=O)c1ccc(NCc2ccc3nc(NC(=O)c4ccccc4)nc(NC(=O)c4ccccc4)c3c2)cc1)C(=O)OCC`, the GI50 is reported as inactive: 22.2 µM.
